Data reported in the supplement of paper PMC12217912.
The other results are listed elsewhere or left out. The full chains were built here from the parent and the listed change. Inactive controls read about 0.05.

B1: TEV protease; numbered along this chain (parent)
chain: MGESLFKGPRDYNPISSSICHLTNESDGHTTSLYGIGFGPFIITNKHLFRRNNGTLVVQSLHGVFKVKDTTTLQQHLVDGRDMIIIRMPKDFPPFPQKLKFREPQREERICLVTTNFQTKSMSSMVSDTSCTFPSGDGIFWKHWIQTKDGQCGSPLVSTRDGFIVGIHSASNFTNTNNYFTSVPKNFMELLTNQEAQQWVSGWRLNADSVLWGGHKVFMVKPEEPFQPVKEATQL

Variants of: B1
Experiment: raw area under fraction-flipped curve 0-4 h after induction (AUC4h, not background-subtracted), DNA-recorder readout of cleavage of the substrate (dimensionless); higher = more cleavage of the substrate by the protease variant
Settings: temperature: 34 °C; time window: 0-4 h after rhamnose induction
Description: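 In vivo DNA recorder in E. coli TOP10(DE3) ΔrhaA at 34 °C. Each TEVp single-site mutant (parent TEVp 0) is paired with a single-site variant of the 7-mer TEVs (canonical ENLYFQ|S). The substrate sits between flexible linkers in a Bxb1-sfGFP-TEVs-SsrA fusion, so cleavage stabilises Bxb1 and speeds flipping of a recombination array, read by NGS. The value is the raw area under the fraction-flipped curve over 0-4 h after rhamnose induction (AUC4h), with ≥20 reads per time point. It is not background-subtracted; inactive controls average about 0.047.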
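Note: Bxb1 expression induced with 0.2% (w/v) L-rhamnose at OD600 near 0.5, cultures sampled hourly, flipped fraction per protease–substrate barcode pair counted by paired-end Illumina sequencing.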

Variant | area with substrate ANLYFQS | area with substrate CNLYFQS | area with substrate FNLYFQS | area with substrate HNLYFQS | area with substrate INLYFQS | area with substrate KNLYFQS | area with substrate LNLYFQS | area with substrate NNLYFQS | area with substrate PNLYFQS | area with substrate QNLYFQS | area with substrate TNLYFQS | area with substrate WNLYFQS | area with substrate YNLYFQS | area with substrate GNLYFQS | area with substrate MNLYFQS | area with substrate DNLYFQS | area with substrate VNLYFQS | area with substrate RNLYFQS | area with substrate SNLYFQS
MGESLFKGPRDYNPISSSICHLTNESDGHTTSLYGIGFGPFIITNKHLFRRNNGTLVVQSLHGVFKVKDTTTLQQHLVDGRDMIIIRMPKDFPPFPQKLKFREPQREERICLVTTNFQTKSMSSMVSDTSCTFPSGDGIFWKHWIQTKDGQCGSPLVSTRDGFIVGIHSASNFTNTNNYFTSVPKNNMELLTNQEAQQWVSGWRLNADSVLWGGHKVFMVKPEEPFQPVKEATQL [F187N] | 0.0748 | 0.062 | 0.054 | 0.105 | 0.0581 | 0.0645 | 0.0247 | 0.0537 | 0.0509 | 0.021 | 0.0422 | 0.0438 | 0.0617 |  |  |  |  |  | 
MGESLFKGPRDYNPISSSICHLTNESDGHTTSLYGIGFGPFIITNKHLFRRNNGTLVVQSLHGVFKVKDTTTLQQHLVDGRDMIIIRMPKDFPPFPQKLKFREPQREERICLVTTNFQTKSMSSMVSDTSCTFPSGDGIFWKHWIQTKDGQCGSPLVSTRDGFIVGIHSASNFTNTNNYFTSVPKNFYELLTNQEAQQWVSGWRLNADSVLWGGHKVFMVKPEEPFQPVKEATQL [M188Y] | 0.062 | 0.0436 | 0.063 | 0.0638 | 0.056 |  | 0.0644 | 0.0673 | 0.0648 |  | 0.0591 | 0.0598 |  | 0.0595 | 0.0556 |  |  |  | 
MGESLFKGPRDYNPISSSICHLTNESDGHTTSLYGIGFGPFIITNKHLFRRNNGTLVVQSLHGVFKVKDTTTLQQHLVDGRDMIIIRMPKDFPPFPQKLKFREPQREERICLVTTNFQTKSMSSMVSDTSCTFPSGDGIFWKHWIQTKDGQCGSPLVSTRDGFIVGIHSASNFTNTNNYFTSVPKNFMEGLTNQEAQQWVSGWRLNADSVLWGGHKVFMVKPEEPFQPVKEATQL [L190G] | 0.0642 |  |  | 0.0583 | 0.0739 | 0.0628 | 0.0594 | 0.0743 | 0.0576 |  | 0.0579 |  |  | 0.0608 |  | 0.0725 | 0.08 |  | 
MGESLFKGPRDYNPISSSICHLTNESDGHTTSLYGIGFGPFIITNKHLFRRNNGTLVVQSLHGVFKVKDTTTLQQHLVDGRDMIIIRMPKDFPPFPQKLKFREPQREERICLVTTNFQTKSMSSMVSDTSCTFPSGDGIFWKHWIQTKDGQCGSPLVSTRDGFIVGIHSASNFTNTNNYFTSVPKNFMEWLTNQEAQQWVSGWRLNADSVLWGGHKVFMVKPEEPFQPVKEATQL [L190W] | 0.0588 | 0.0603 |  | 0.0558 | 0.0583 |  |  | 0.0551 | 0.0569 |  | 0.0598 | 0.0488 | 0.065 | 0.0484 | 0.048 |  | 0.0502 | 0.0633 | 0.0569
MGESLFKGPRDYNPISSSICHLTNESDGHTTSLYGIGFGPFIITNKHLFRRNNGTLVVQSLHGVFKVKDTTTLQQHLVDGRDMIIIRMPKDFPPFPQKLKFREPQREERICLVTTNFQTKSMSSMVSDTSCTFPSGDGIFWKHWIQTKDGQCGSPLVSTRDGFIVGIHSASNFTNTNNYFTSVPKNFMELLTIQEAQQWVSGWRLNADSVLWGGHKVFMVKPEEPFQPVKEATQL [N193I] | 0.0457 | 0.0836 |  |  |  | 0.072 | 0.0603 |  | 0.0596 |  | 0.0692 | 0.0509 |  | 0.0711 | 0.0729 | 0.0536 | 0.0639 |  | 0.0648
MGESLFKGPRDYNPISSSICHLTNESDGHTTSLYGIGFGPFIITNKHLFRRNNGTLVVQSLHGVFKVKDTTTLQQHLVDGRDMIIIRMPKDFPPFPQKLKFREPQREERICLVTTNFQTKSMSSMVSDTSCTFPSGDGIFWKHWIQTKDGQCGSPLVSTRDGFIVGIHSASNFTNTNNYFTSVPKNFMELLTNEEAQQWVSGWRLNADSVLWGGHKVFMVKPEEPFQPVKEATQL [Q194E] | 0.0825 | 0.0265 |  | 0.0687 |  | 0.0745 | 0.0509 | 0.078 |  |  | 0.0587 |  |  |  |  | 0.127 |  |  | 
MGESLFKGPRDYNPISSSICHLTNESDGHTTSLYGIGFGPFIITNKHLFRRNNGTLVVQSLHGVFKVKDTTTLQQHLVDGRDMIIIRMPKDFPPFPQKLKFREPQREERICLVTTNFQTKSMSSMVSDTSCTFPSGDGIFWKHWIQTKDGQCGSPLVSTRDGFIVGIHSASNFTNTNNYFTSVPKNFMELLTNPEAQQWVSGWRLNADSVLWGGHKVFMVKPEEPFQPVKEATQL [Q194P] | 0.0719 | 0.112 | 0.0693 | 0.0736 | 0.0372 |  |  | 0.0628 | 0.0656 |  |  | 0.0343 |  |  |  |  | 0.0748 |  | 
MGESLFKGPRDYNPISSSICHLTNESDGHTTSLYGIGFGPFIITNKHLFRRNNGTLVVQSLHGVFKVKDTTTLQQHLVDGRDMIIIRMPKDFPPFPQKLKFREPQREERICLVTTNFQTKSMSSMVSDTSCTFPSGDGIFWKHWIQTKDGQCGSPLVSTRDGFIVGIHSASNFTNTNNYFTSVPKNFMELLTNQFAQQWVSGWRLNADSVLWGGHKVFMVKPEEPFQPVKEATQL [E195F] | 0.0495 |  | 0.0558 | 0.0646 | 0.0718 | 0.056 |  | 0.0712 |  |  |  | 0.0352 | 0.0584 |  | 0.0817 | 0.0528 | 0.0514 | 0.0594 | 0.067
MGESLFKGPRDYNPISSSICHLTNESDGHTTSLYGIGFGPFIITNKHLFRRNNGTLVVQSLHGVFKVKDTTTLQQHLVDGRDMIIIRMPKDFPPFPQKLKFREPQREERICLVTTNFQTKSMSSMVSDTSCTFPSGDGIFWKHWIQTKDGQCGSPLVSTRDGFIVGIHSASNFTNTNNYFTSVPKNFMELLTNQEHQQWVSGWRLNADSVLWGGHKVFMVKPEEPFQPVKEATQL [A196H] | 0.0693 | 0.069 | 0.0661 | 0.0623 | 0.0644 | 0.07 | 0.0616 | 0.0658 | 0.0592 |  | 0.0599 | 0.0615 | 0.0617 |  | 0.0752 |  | 0.0519 | 0.066 | 0.0791
